# Read counts are not given, so values of variants with three or more changes are uncertain.
# B1: OR4K15 (parent)
# chain: GUUAACGGUCAUAGGCCAUGGAAACUAGGAGCACCAUUUCGCUGCCAGUGAAGAAAUGAACAAAGAAAAUCUGGGCCAGGCAGGCAUCAAAAGAAAUAGUCUUGCGCUCAACCAGAAAGUCUGUAAUCAUUUUAAGGGUA
# Variants of: B1
# Assay: self-cleavage, relative activity (ratio to wild type); higher = more cleavage; in vitro, sequencing; the parent is a self-cleaving ribozyme
row,Variant,self-cleavage
1,A23G U97A A129C,1.03
2,A23U A111C A114U,0.03
3,A23G A47G A64G A69G,0.22
4,A23G A62G U70C,0.34
5,A22U U49C A64U U87C,1.4
6,A23G G41U A67G U122C A134U,0.98
7,A23G A117G U132C,1.05
8,A23U G29U A56G U120C,0.94
9,A23G C88U A96G,2.29
10,A23G U49C U70A A91G U100C U127C,1.21
11,A23U A90G U103G,0.05
12,A23G A68G G83U U122A,0.32
13,A22U A86G A116C U132C U133C,0.02
14,A24C A30G A89C,1.83
15,A22U U38C A55G A59G A64U A96G U97C A117G,0.71
16,A23G A62G A96G,0.84
17,A23G U37C U49C A92G A95G,1.53
18,A23G U49A A60G A67G U72A,0.26
19,A22U A24U A33G U37C A89G A95G,0.87
20,A22U U108C A125G,0.01
21,A24C A33G A36G A94G U102C,1.84

row,Variant,self-cleavage
1,A24C A62U U72C,0.14
2,A23G A64G A82G A111G,0.08
3,A23G A24G A51G A69U,1.32
4,A23G A33G U39C A90G A125G,0.29
5,A23G A64G A82G,0.27
6,A23G A67G A95U U108C A118G U127A,0
7,A22U U39A U57A,1.31
8,A22U U39C A51G A68G A91G A114C,0.11
9,A23G A33G U37C A52G U122A,0.27
10,A24C A47G A62G A68G A116G,0.36
11,A23U A114G U130C,0.15
12,A22U U39C A59G A68G A90G A140G,1.25
13,A23G A56U A92G A95G A116G,1.4
14,A23G U39C U132A,1.29
15,A22U U72A A91U,0.22
16,A23G A33U A78G A91G A126G,0.02
17,A24C A27G U39A U49C A51G U100C,1.18
18,A23G A27G G50A C81U,0.38
19,A23G A30G A60G U102A,0.36
20,A23C U26A A56G U132C,0.93
21,A23G A24U U57C A89G U97C U100C,1.29

row,Variant,self-cleavage
1,A23G A36G U37C U122C,1.01
2,A23G U49C A51G A62G G75U U103C,0.05
3,A23G U43C C113U U139A,0.08
4,A23G A66U A114U,0.04
5,A23U A33G A62U U70A A110G G136U,0.06
6,A23G A54G A117G,1.73
7,A24C U37C A60G A68G,1.53
8,A23G A64C A140G,2.19
9,A23G A67G A126G,0.93
10,A23G A126G U131C,0.35
11,A23G A67U U127C,0.29
12,A22U G74A G83U,0.19
13,A23G A54U A64G,1.41
14,A22U A33C A69G U108C,0.03
15,A23G A62C C121U A129U,0.68
16,A24C A33G A91G A96G,0.9
17,A23C A82G A94G U102A,0.1
18,A23G A47G A78G A111G,0.12
19,A23G U39C U72G,0.24
20,A23G A30G U108A U132C,0.1
21,A23G A55G A60G U87A A98G,0.45

row,Variant,self-cleavage
1,A23G U87C A91G,1.32
2,A23G A47G A59U A67G U131C,0.11
3,A23G U120A A135U,1.27
4,A23G A54G A66G,1.11
5,A23G A56G A68G U87C A89G,0.55
6,A23G A62G U87C A95C U108C,0.01
7,A23G A54G A60G,0.35
8,A23G U49C A51G A62G A96G,0.71
9,A23G U37C A51G,0.75
10,A23G U38C U43C A59G U97C A98U A126G U127C,0.39
11,A23C A47G A91U,0.43
12,A24C U43A A69G C81U A90G,0.12
13,A23G U38C A62G,0.56
14,A23U U39C U49A A94G,0.77
15,A23G A126G U127C,0.55
16,A23U A24C U133C,0.85
17,A23U A55G A66G A96U,0.66
18,A23G A66U A96G U108G,0.01
19,A22U U38A A67U A94G,1.78
20,A23G G41A A92G,1.15
